Data from PMC11725581, “Developing novel Lin28 inhibitors by computer aided drug design” (Cell Death Discovery, 2025).

Key:
[1] = test system: Lin28b-positive DuNE cells; details: for inhibitory effect on DuNE cell growth / concentration at which dose-dependent inhibition of cell growth starts: 2D conditions
[2] = test system: Lin28b-positive DuNE cells; assay: cells

| SMILES | inhibitory effect on DuNE cell growth [1] | IC50 [2] [µM] | concentration at which dose-dependent inhibition of cell growth starts ([1]; DuNE cells) [µM] | other results |
| --- | --- | --- | --- | --- |
| CC(=O)N(C)c1cccc(-c2ccc3nnc(C)n3n2)c1 [C1632, reference compound] | no inhibitory effects at concentrations below 100 μM | – | – | – |
| O[As](O)O [ARS, arsenite, reference compound] | – | – | – | IC50 [1]: 2.73 µM |
| N.N.[Cl][Pt][Cl] [Cisplatin, cisplatin, reference compound] | – | – | – | IC50 ([1]; DuNE cells, single agents (Figure S5)): 1.52 µM |
| O=c1[nH]c(Nc2ccc(F)cc2O)cs1 [Ln268] | stronger suppressive effects than Ln15 | 6.29 | 5 | cell proliferation, DuNE ([1]; Lin28b-positive DuNE cells): strongly inhibited cell proliferation |
| O=c1[nH]c(Nc2ccccc2O)cs1 [Ln15] | – | – | 5 | – |
| COc1cc([C@@H]2c3cc4c(cc3[C@@H](O[C@@H]3O[C@@H]5CO[C@@H](C)O[C@H]5[C@H](O)[C@H]3O)[C@H]3COC(=O)[C@H]23)OCO4)cc(OC)c1O [Etoposide, etoposide, reference compound] | – | 0.543 | – | – |

Where two headings read alike, the source gives them in different places.
